Variants at the floor of the assay are shown more often than the library holds them.
B1: TPR 5TU (parent)
chain: GGAUCUUCUCGAUCUAACAAAAAAGACAAAUCUGCCACAAAGCUUGAGAGCAUCUUCGGAUGCAGAGGCGGCAGCCUUCGGUGGCGCGAUAGCGCCAACGUUCUCAACUAUGACACGCAAAACGCGUGCUCCGUUGAAUGGAGUUUAUCAUG

Variants of: B1
Assay: polymerase ribozyme fitness, log enrichment relative to wild type (log ratio); higher = more active; in vitro selection for triplet polymerase activity
Procedure, shortened: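 For each subunit of a heterodimeric triplet polymerase ribozyme, a mutant library was built by PCR and transcribed, then taken through a single in vitro selection round in triplicate. Selection involved annealing to a biotinylated primer, the partner subunit and triplets, incubation frozen at −7 °C, gel excision of extended constructs, capture on streptavidin beads and RT-PCR. Genotypes were retained after Illumina sequencing of inputs and outputs only with ≥10 input reads and ≥1 read in each output. Fitness is defined as the logarithm of a genotype's enrichment relative to wild-type enrichment, using inverse-variance-weighted averages across replicates, with the logarithm taken to base 2.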

Variant | polymerase ribozyme fitness (log ratio)
U7C C8A U61A G81C A115G A119U U146G | ≤ -4.2
U6A A12U G34A U45A G88A C149U | ≤ -4.2
U7C C51U C57U A97G A137U G141U | ≤ -4.2
U7C C32G U53A G94C C105U | ≤ -4.2
U7G A19C A30U G71C G84A C96G C118G | ≤ -4.2
U6A U61A C93A | ≤ -4.2
U6G C14A A22G G50U U55G G92A C108U | ≤ -4.2
U6G C35G G59A C85A A106G G126U | ≤ -4.2
C5G U33C G50C C57U G71A A73U A91U | ≤ -4.2
U7C U9G A17U A26G G84A C116A | -3.98
U6C C36U C96U A98C U111G A122G C129U G141U | ≤ -4.2
U6A C38G C57A C85U C87U A106C U139C | ≤ -4.2
U6A A30G A39U U53A C95G C118U | ≤ -4.2
U6G G58U U61A C96G A107C U109G | ≤ -4.2
U7G A64G C87A C105A U144G | ≤ -4.2
U6A A21U G74U A91G C95G C105G A147U | ≤ -4.2
U7G A23C A39U U44C U55G A113C | ≤ -4.2
C5U A91G G92U A107G | ≤ -4.2
U6G U15G G83C A89G G94U | ≤ -4.2
U6C U31G C36A C69U A89G A121U | ≤ -4.2
U7G A60U G83C C85A C105G A137G | ≤ -4.2

Variant | polymerase ribozyme fitness (log ratio)
U6C C87A | ≤ -4.2
U7G A12G A24U A37C A49C G92U | ≤ -4.2
U6G G68A G92A | ≤ -4.2
U6G A12U A23G C38A G83U U90G C95A | ≤ -4.2
U6G A47C C87A | ≤ -4.2
U6C C35A C69A C76U G86A U101C | ≤ -4.2
C5G U15A A39C G50A A52C C76A C93A U101G | ≤ -4.2
U7G A19G A23U G25C A122G | ≤ -4.2
U6C A23G A49U U55A G88U | ≤ -4.2
U6C U33G U56C G81C C95U | ≤ -4.2
U6A C54A C95G A98U | -2.26
C5U A17U G50A G71U G86U C87A | ≤ -4.2
U6C C14U U44A G68U G92U A98G C99G | ≤ -4.2
U7C A19C A24U A30G A49C C118G | ≤ -4.2
C5U C87U | 0.457
C5G U33G A37U A60C C75U G94U C108U | ≤ -4.2
U7G A24U G86U A91C C99G U109G | ≤ -4.2
U7G A60U C93A | ≤ -4.2
U7G A28U A47C G50C U53A U61G C93U C95U A150U | ≤ -4.2
C5G U144G | 0.355
U6G A29C A73U G86U | ≤ -4.2

Variant | polymerase ribozyme fitness (log ratio)
U6G G50U C85U C116U | 0.202
U6A C8G A12U A22G A28C A39U C57G G100U C118A | ≤ -4.2
U7G A12G A52U C57A A73G C93G | ≤ -4.2
C5G U53A U61A C75A C76G C85U U127G U135G | ≤ -4.2
C5U C36G A64U G67C G86U A97C | ≤ -4.2
U7A C36U U53G C54A G65C C87U | ≤ -4.2
U6G C75U | 0.374
U6A U146G A150G G152A | -1.38
U7G A47U G128U | ≤ -4.2
U6A A28U U56G U102G A120U G126U | ≤ -4.2
U7A G48A A73C G88C A107U | ≤ -4.2
U6A C14G C85G U90G A113U | ≤ -4.2
U7C G117C G136A G143U | ≤ -4.2
U6G A21U C87A C93U | ≤ -4.2
U6A C10G G50A U55A G88C C103G A110C U134A G141A | ≤ -4.2
U7G A12U A60U G81C C96G U101G C114U G117A A121U | ≤ -4.2
U6G G92A | -2.59
U7C G48C C85U | -3.27
U7G A26G C93G C108G | ≤ -4.2
U7G A30U C43U U53A C93A | ≤ -4.2
U6A A37C C79G | ≤ -4.2

Variant | polymerase ribozyme fitness (log ratio)
U6G U53A C85G G100U G128U U135C G140C | ≤ -4.2
U6G A16U A30U A41U G71U G94C U139C | ≤ -4.2
U6A G86A C87G | ≤ -4.2
U6A A22G C125U | -0.424
U7C C35A U61A A64U A150G | ≤ -4.2
C5U C75A | -4.03
U6A C54A C79G C103A G136A | ≤ -4.2
U7C U45G G74A C85U | ≤ -4.2
U6G G11C C35U U61A A64G G74A A107C | ≤ -4.2
U6A C10A A40U A47C U56A G94C A115U | ≤ -4.2
C5U U7C A21U G86A C131A | -4.16
U7A G58A C85G U90A C93A U146G | ≤ -4.2
C5U G11A A22C C57A G92A U139C | ≤ -4.2
U6C A17C C35U G48U U55A U56A C87A C125U | ≤ -4.2
U6A A28U C96G A113U G143A | ≤ -4.2
U6G U55A G65C G70A G86U U104G G124A G141C U144C | ≤ -4.2
C5U U33G G50C C54A U55A C69A C76A C85U C149G | ≤ -4.2
U6G C99G G141C | -2.05
U6A C54A G88C | ≤ -4.2
U6C U9A A30U A49U C85U U146C | ≤ -4.2
U7C A20G G50A C75A G84A U104G A110C | ≤ -4.2

Source: the RNAGym collection of RNA variant scans (doi:10.1073/pnas.2313332121)
